Sequences with one replicate were seen in a single cluster, so their values are uncertain.
Each sequence was assayed on ATP (assay: switch fluorescence ratio, 500 uM ATP over buffer (Cy3 cluster intensity, sum of 5 cycles each) (fold (ratio)); higher = stronger signal-on switching upon ATP binding; sequences stand for … in TCGTCGGCAGCGTCAGATGTGTATAAGAGACAGTTTTTTTTTTTTTTTTTTTTTTTTT…TC). Conditions: aptamer strand: ATP DNA aptamer (quencher-CACCTGGGGGAGTATTGCGGAGGAAGG + anchor), 100 nM annealed; ATP concentration: 500 uM; one replicate.
Method in brief: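 The quencher-labelled ATP aptamer, at 100 nM, was annealed to Cy3-labelled switching-strand clusters on a modified Illumina MiSeq flow-cell. The clusters were imaged in selection buffer, then after 15 min with 500 uM ATP at 22 °C, and this buffer/ATP cycle ran five times with NaOH stripping and re-annealing between runs. Per-cluster fluorescence ratios, summed target-cycle over summed buffer-cycle Cy3 intensity, were averaged per switch-domain sequence. Clusters outside 100-1000 RFU were excluded.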
Sequence ATGACTAA has a switch fluorescence ratio of 1.02. In the case of ATGACTTGA, the switch fluorescence ratio is reported as 1.03. ATGAGAGGCG gave a switch fluorescence ratio of 0.935. ATGAGATTTG showed a switch fluorescence ratio of 1.04. ATGAGCACGG showed a switch fluorescence ratio of 1.01. ATGAGCGACA was tested, and the switch fluorescence ratio was 1. In the case of ATGAGCGAGG, the switch fluorescence ratio is reported as 0.951. For ATGAGCTGCC, the switch fluorescence ratio was 1.1. Work on ATGAGGAGAA yielded a switch fluorescence ratio of 1.03. Work on ATGAGGAGGC yielded a switch fluorescence ratio of 1.02. In the case of ATGAGGCGTC, the switch fluorescence ratio is reported as 1.07. ATGAGGGTT was tested, and the switch fluorescence ratio was 1.03. ATGAGTAATT gave a switch fluorescence ratio of 0.959. Work on ATGAGTCTCA yielded a switch fluorescence ratio of 0.998. For ATGAGTGACT, the switch fluorescence ratio was 0.972. With ATGAGTTTAT the switch fluorescence ratio was 0.969. ATGATACTTT was tested, and the switch fluorescence ratio was 1.27. ATGATAGACC was tested, and the switch fluorescence ratio was 1.05. Work on ATGATAGTA yielded a switch fluorescence ratio of 0.963. Work on ATGATCTGCA yielded a switch fluorescence ratio of 0.976. ATGATGCGAG gave a switch fluorescence ratio of 0.963. With ATGATGTTGG the switch fluorescence ratio was 0.983. ATGATTAAAT was tested, and the switch fluorescence ratio was 0.94. Work on ATGATTATAC yielded a switch fluorescence ratio of 1.03. Sequence ATGATTATTG has a switch fluorescence ratio of 1.01. ATGATTGACG gave a switch fluorescence ratio of 1.08. ATGATTGGG was tested, and the switch fluorescence ratio was 1.01. ATGCAAAACC showed a switch fluorescence ratio of 1.17. Sequence ATGCAACTGA has a switch fluorescence ratio of 1.02. For ATGCACGGTC, the switch fluorescence ratio was 1.02. With ATGCAGATGC the switch fluorescence ratio was 1.03. Sequence ATGCAGGGCA has a switch fluorescence ratio of 0.95. With ATGCATAATC the switch fluorescence ratio was 0.998. ATGCATCA showed a switch fluorescence ratio of 0.982. ATGCATGCGA showed a switch fluorescence ratio of 0.98. ATGCCATAAG showed a switch fluorescence ratio of 1.02. For ATGCCCGATG, the switch fluorescence ratio was 0.971. ATGCCCTGGC showed a switch fluorescence ratio of 0.993. For ATGCCCTTCC, the switch fluorescence ratio was 2.65. Sequence ATGCCGCGCA has a switch fluorescence ratio of 0.995. ATGCCTGACT showed a switch fluorescence ratio of 0.99. ATGCGACTTA showed a switch fluorescence ratio of 1. Sequence ATGCGCAGTC has a switch fluorescence ratio of 1.21. Sequence ATGCGCCATT has a switch fluorescence ratio of 1.03. ATGCGGAGTT showed a switch fluorescence ratio of 0.975. With ATGCGGATTG the switch fluorescence ratio was 1.01. ATGCGGGGAG showed a switch fluorescence ratio of 1.01. Work on ATGCGGGTT yielded a switch fluorescence ratio of 1.08. ATGCGTATAC showed a switch fluorescence ratio of 2.46. Work on ATGCTAATCA yielded a switch fluorescence ratio of 1.06. ATGCTAGGGA was tested, and the switch fluorescence ratio was 0.98. Work on ATGCTCAGGG yielded a switch fluorescence ratio of 1.08. In the case of ATGCTCTCGT, the switch fluorescence ratio is reported as 1.02. For ATGGAAGAAT, the switch fluorescence ratio was 0.99. Sequence ATGGAATCCG has a switch fluorescence ratio of 1.02. ATGGAATGTG showed a switch fluorescence ratio of 0.94. For ATGGAATTTT, the switch fluorescence ratio was 1. For ATGGACTAGT, the switch fluorescence ratio was 0.969. ATGGACTGTG showed a switch fluorescence ratio of 1.02. For ATGGAGAAGA, the switch fluorescence ratio was 1.02. ATGGAGCCCC showed a switch fluorescence ratio of 1. ATGGAGCGCA gave a switch fluorescence ratio of 1.06. ATGGAGGAAG was tested, and the switch fluorescence ratio was 1.01. Sequence ATGGAGTTGT has a switch fluorescence ratio of 1.09. Work on ATGGAGTTTT yielded a switch fluorescence ratio of 1.04. ATGGATAAGT was tested, and the switch fluorescence ratio was 0.97. ATGGATGGCA showed a switch fluorescence ratio of 0.982. ATGGATTGAG was tested, and the switch fluorescence ratio was 1. In the case of ATGGCAATGG, the switch fluorescence ratio is reported as 1.74. ATGGCCCCGC was tested, and the switch fluorescence ratio was 1. In the case of ATGGCCTGTG, the switch fluorescence ratio is reported as 1.02. With ATGGCGCACT the switch fluorescence ratio was 0.964. ATGGCGTAG was tested, and the switch fluorescence ratio was 0.985. ATGGCGTCAG was tested, and the switch fluorescence ratio was 1. Sequence ATGGGAAACA has a switch fluorescence ratio of 1.02. Work on ATGGGAATGT yielded a switch fluorescence ratio of 0.996. ATGGGAGAAC gave a switch fluorescence ratio of 1.03. In the case of ATGGGATTCG, the switch fluorescence ratio is reported as 1.03. Sequence ATGGGGCCCG has a switch fluorescence ratio of 0.971. ATGGGGCGCG was tested, and the switch fluorescence ratio was 0.993. Work on ATGGGTTGTA yielded a switch fluorescence ratio of 1. With ATGGTAAGCC the switch fluorescence ratio was 0.994. For ATGGTAATTC, the switch fluorescence ratio was 0.968. ATGGTACTCC showed a switch fluorescence ratio of 1.08. ATGGTAGTCA was tested, and the switch fluorescence ratio was 1.01. In the case of ATGGTCCGTA, the switch fluorescence ratio is reported as 1.05. In the case of ATGGTCCTGT, the switch fluorescence ratio is reported as 0.953. With ATGGTCGGGT the switch fluorescence ratio was 1.04. With ATGGTGGGCA the switch fluorescence ratio was 0.977. ATGGTGTCAT was tested, and the switch fluorescence ratio was 0.989. ATGGTTAGTC gave a switch fluorescence ratio of 1.02. ATGGTTGCGT was tested, and the switch fluorescence ratio was 0.967. For ATGGTTGGCA, the switch fluorescence ratio was 0.998. For ATGGTTGTCC, the switch fluorescence ratio was 0.976. Sequence ATGTAAACTT has a switch fluorescence ratio of 0.987. ATGTAATACA showed a switch fluorescence ratio of 0.968. In the case of ATGTACCAGC, the switch fluorescence ratio is reported as 1.04. With ATGTAGAATG the switch fluorescence ratio was 1. ATGTAGCAGT gave a switch fluorescence ratio of 1.7. For ATGTAGCCCC, the switch fluorescence ratio was 0.997.

From the supplement of paper PMC10126150
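Note: ATP exposure 15 min at 22 °C before imaging.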
